The record followed here is article PMC4336329 (PLoS ONE, 2015).

Each structure is given as a SMILES string. In all, about 310,000 compounds went through this assay and about 2,200 (0.71%) showed an effect of 50% or more. The effect is printed as a negative number. This is one part of the list.

The target of the assay is human ether-à-go-go-related gene (hERG) potassium channel (human, UniProt Q12809). Kind of assay: primary screen, population patch clamp on CHO cells stably expressing hERG.
human ether-à-go-go-related gene (hERG) potassium channel, sequence (Q12809 whole entry, looked up): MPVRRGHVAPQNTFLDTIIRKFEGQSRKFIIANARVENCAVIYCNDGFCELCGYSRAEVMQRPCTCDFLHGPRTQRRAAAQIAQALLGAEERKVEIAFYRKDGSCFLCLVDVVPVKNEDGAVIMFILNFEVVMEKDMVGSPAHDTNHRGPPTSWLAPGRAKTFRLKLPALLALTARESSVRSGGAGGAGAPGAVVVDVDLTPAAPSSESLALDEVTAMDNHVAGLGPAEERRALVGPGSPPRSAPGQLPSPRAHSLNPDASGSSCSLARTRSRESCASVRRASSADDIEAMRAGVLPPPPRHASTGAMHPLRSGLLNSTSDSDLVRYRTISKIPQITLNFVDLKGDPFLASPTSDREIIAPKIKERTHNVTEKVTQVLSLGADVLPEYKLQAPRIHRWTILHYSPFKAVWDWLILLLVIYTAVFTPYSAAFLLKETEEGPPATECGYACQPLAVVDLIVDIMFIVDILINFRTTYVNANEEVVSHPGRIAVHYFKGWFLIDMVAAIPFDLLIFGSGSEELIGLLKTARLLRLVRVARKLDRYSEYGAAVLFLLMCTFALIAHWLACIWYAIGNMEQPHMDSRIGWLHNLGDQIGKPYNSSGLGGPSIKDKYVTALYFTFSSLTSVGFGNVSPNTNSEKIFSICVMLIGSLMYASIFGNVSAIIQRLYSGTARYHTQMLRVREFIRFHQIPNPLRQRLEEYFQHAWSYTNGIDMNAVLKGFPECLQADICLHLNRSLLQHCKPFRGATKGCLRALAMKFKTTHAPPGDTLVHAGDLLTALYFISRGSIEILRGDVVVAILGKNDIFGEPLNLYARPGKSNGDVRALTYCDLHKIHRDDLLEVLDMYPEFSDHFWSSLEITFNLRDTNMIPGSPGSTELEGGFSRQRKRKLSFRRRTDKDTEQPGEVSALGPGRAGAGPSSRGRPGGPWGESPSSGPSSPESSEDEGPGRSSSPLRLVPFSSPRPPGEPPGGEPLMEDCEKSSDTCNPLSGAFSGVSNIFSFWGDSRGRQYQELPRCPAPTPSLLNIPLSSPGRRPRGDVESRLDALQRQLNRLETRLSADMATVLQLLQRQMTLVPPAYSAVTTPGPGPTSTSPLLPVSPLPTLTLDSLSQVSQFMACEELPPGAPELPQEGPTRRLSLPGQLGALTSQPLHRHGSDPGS
With `c1ccc(-c2nnc(-c3ccccn3)nn2)nc1`, the “hERG current change (%, negative = inhibition) at 1uM” value is given as -0.974%.
In the case of `CC(NC(=O)c1ccco1)C(=O)N1CCc2ccccc2C1` (centres unmarked) it was 14.7%; in that of `COS(=O)(=O)[O-].Cn1c(-c2ccccc2)c[n+]2c1-c1ccccc1C2`, 6.69%.
Consider `CCOC(=O)c1cc(-c2ccccc2C)n(CC2CC(c3cccc([N+](=O)[O-])c3)=NO2)n1` (centres unmarked), for which the “hERG current change (%, negative = inhibition) at 1uM” value amounted to 11.6%.
As to `COC(=O)c1ccc(/C=C2/SC(=S)N(CCC(=O)NCCCN3CCOCC3)C2=O)cc1`, the “hERG current change (%, negative = inhibition) at 1uM” value is recorded as 5.78%.
In the case of `COc1cc([N+](=O)[O-])ccc1N1C(=O)C2C3C=CC(C4CC34)C2C1=O` (centres unmarked) it was 2.95%.
In the case of `CCCOc1ccc(/C=N/Nc2ccccn2)cc1OC` it was 14.2%; in that of `CSc1nc(N)c2c(C)c(C)sc2n1`, 10.8%.
Next, `Cc1[nH]c2c(C)cccc2c1CCNC(=O)C1CCCCC1C(=O)OCC(F)(F)F` (centres unmarked): 13.5%; `CCOc1ccc2[nH]cc(C(=O)NCc3ccccc3)c(=O)c2c1`: 14.9%.
As to `CC(C)CC(=O)NNC(=O)C(C)C`, the “hERG current change (%, negative = inhibition) at 1uM” value came out at 13.5%.
In the case of `CCCCn1c(O)c(C=NC2CC3CCC2(C)C3(C)C)c(=O)[nH]c1=O` (centres unmarked) it was 4.59%; in that of `CCn1cc([N+](=O)[O-])c(C(=O)NCc2ccc3c(c2)OCO3)n1`, 11.6%; in that of `Cc1ccc(C2CC(c3ccccc3)=NN2c2ccccc2)o1` (centres unmarked), 11%.
For `Cc1ccccc1NCN1C(=O)C2C3C=CC(C3)C2C1=O` (centres unmarked), the “hERG current change (%, negative = inhibition) at 1uM” value is recorded as 8.59%.
In the case of `CCOc1ccc2nc(NC(=S)NCc3ccccc3)sc2c1` it was 2.47%.
In the case of `CCC(=O)Nc1cccc2ccccc12` it was 4.62%; in that of `Cc1cc(C)nc(SC2CCCCC2O)n1` (centres unmarked), 16.3%.
In the case of `CCOCCCNC(=O)CN1C(=O)CSc2ccc(S(=O)(=O)N3CCOCC3)cc21` it was 18.9%; in that of `CN(Cc1nc(-c2cccnc2)no1)S(=O)(=O)c1ccc(Br)cc1`, -5.83%.
Regarding `CCOC(=O)N1CCN(C(=O)C2CC(=O)N(Cc3ccc(OC)cc3)C2)CC1` (centres unmarked), the “hERG current change (%, negative = inhibition) at 1uM” value came out at 6.27%.
In the case of `COc1ccc(NC(=O)C(=O)N/N=C(\C)CC(=O)Nc2ccccn2)c(OC)c1` it was 12.3%; in that of `COCC1CCCCN1C(=O)c1ccc2nc(Cc3ccc(OC)c(OC)c3)oc2c1` (centres unmarked), 12.2%; in that of `COc1cc(/C=C(\C#N)c2nc3c(s2)CCCC3)ccc1O`, 9.31%.
Next, `Cc1cccc(C(C)C)c1NC(=O)COC(=O)C1CC(=O)N(Cc2ccccc2)C1` (centres unmarked): 6.76%; `Cc1cccc(-n2c(O)c(C=NC3CCS(=O)(=O)C3)c3ccccc3c2=O)c1C` (centres unmarked): 6.24%.
Next, `COc1ccc(NC(=S)N(CCCN2CCOCC2)Cc2cn(C)c3ccccc23)cc1`: 6.9%; `CCOC(=O)c1c(N2C(=O)C3C4C=CC(O4)C3C2=O)sc2c1CCCC2` (centres unmarked): 3.99%.
`COc1ccc(CCC(=O)Nc2cccc(S(=O)(=O)N3CCCC3)c2)cc1OC`: the “hERG current change (%, negative = inhibition) at 1uM” value came out at 4.35%.
Next, `CC(=O)Nc1cccc(-n2c(=O)n(Cc3ccccc3)c(=O)c3[nH]cnc32)c1`: 11.3%.
Next, `CSCCC(NC(=O)CCNC(=O)c1ccccc1Cl)c1nc2ccccc2[nH]1` (centres unmarked): 5.12%.
Next, `CCN1CCN(C(=O)Cn2ncc3ccsc3c2=O)CC1`: 9.83%; `CCc1ccc(N2C(=O)C(Cl)=C(N3CCCCCC3)C2=O)cc1`: 11.5%; `Cc1ccccc1OCc1nc2ccccc2c(=O)n1NC(=O)c1ccco1`: 16.5%.
For `COc1ccc2[nH]cc(C(=O)CN3CCN(C4CCCCC4)CC3)c2c1`, the “hERG current change (%, negative = inhibition) at 1uM” value is reported as -14.5%.
Consider `COc1c(C(=O)NC(=S)Nc2nnn(C)n2)cc2ccccc2c1Br`, for which the “hERG current change (%, negative = inhibition) at 1uM” value is -8.82%.
As to `CN(C(=O)C1CCN(S(=O)(=O)c2cccs2)CC1)c1ccccc1`, the “hERG current change (%, negative = inhibition) at 1uM” value is given as 3.06%.
Next, `CC(=O)Nc1ccc(S(=O)(=O)N2CCC(c3nc4c(nnn4Cc4ccccc4Cl)c(=O)[nH]3)CC2)cc1`: 5.82%.
In the case of `CC(=O)c1ccc(NC(=S)NC(C)c2ccc(Cl)cc2Cl)cc1` (centres unmarked) it was 13.2%.
Regarding `CCCCN(C)S(=O)(=O)c1ccc(C(=O)Nc2nnc(C3=COCCO3)o2)cc1`, the “hERG current change (%, negative = inhibition) at 1uM” value was 6.23%.
As for `CN1CCN(c2nc(-c3ccc(Cl)cc3)cc(=O)[nH]2)CC1`, the “hERG current change (%, negative = inhibition) at 1uM” value amounted to 6.77%.
For `O=C(NCc1ccccn1)c1cccc(NS(=O)(=O)c2ccccc2F)c1`, the “hERG current change (%, negative = inhibition) at 1uM” value worked out at 10.9%.
Take `COc1ccccc1C(=O)NNC(=S)NC(=O)c1ccco1`: the “hERG current change (%, negative = inhibition) at 1uM” value turned out to be 16.4%.
Next, `NC(=O)COc1ccc2cc(-c3ccccc3)c(=O)oc2c1`: 6.76%.
For the molecule `O=P(c1ccccc1)(c1ccccc1)C1CCCO1` (centres unmarked), the “hERG current change (%, negative = inhibition) at 1uM” value stood at 1.97%.
In the case of `Cc1ccc(NC(=O)CS(=O)CC(=O)N(CC(=O)NC(C)(C)C)c2cccc(C)c2C)cc1` (centres unmarked), the “hERG current change (%, negative = inhibition) at 1uM” value was 7.99%.
Next, `Cc1cc(C)cc(-n2c(=O)c3ccccc3n(CC(=O)NCC3CCCO3)c2=O)c1` (centres unmarked): 15.3%; `Cc1cc(=O)c2cc(Br)ccc2n1CC(=O)NCc1ccccc1`: 12.7%.
`CSc1nc(N)nc(SCC(=O)OC(C)C)c1C#N`: the “hERG current change (%, negative = inhibition) at 1uM” value was determined as 13.3%.
As to `COC(=O)c1cc(-c2cccc(OC)c2)c2c(=O)[nH]c(=O)n(C)c2n1`, the “hERG current change (%, negative = inhibition) at 1uM” value is on record as 10.7%.
With `CCc1ccc(N2CC(C(=O)NCc3ccco3)CC2=O)cc1` (centres unmarked), the “hERG current change (%, negative = inhibition) at 1uM” value was found to be 4.59%.
In the case of `CCn1c(SCC(=O)Nc2ccc3c(c2)c2ccccc2n3CC)nnc1-c1cnccn1` it was 5.44%; in that of `CC(C)c1ccc(NC2CCCN(C(=O)c3ccc(N4CCOCC4)cc3)C2)cc1` (centres unmarked), 4.17%.
Next, `CCOc1ccc(Br)cc1-c1noc(-c2cccs2)n1`: 7.74%.
In the case of `Cc1cccc(-n2ncc3c(NCc4cccs4)ncnc32)c1`, the “hERG current change (%, negative = inhibition) at 1uM” value is 10.6%.
Next, `Cn1c(CCNC(=O)c2ccc(Cl)c(Cl)c2)nnc1SCc1ccc(Cl)c(Cl)c1`: 7.59%.
In the case of `Cc1ccccc1NC(=O)c1ccc(N/N=C/c2ccccc2O)c([N+](=O)[O-])c1` it was 9.03%; in that of `COc1cc(NC(=O)c2cccnc2SC)cc(OC)c1`, 11.2%; in that of `COc1cc2c(C(=O)O)c(C)n(-c3ccccc3)c2c2ccccc12`, 8.08%.
Next, `Cc1cc(N)nc2nc(C(F)(F)F)nn12`: 6.71%; `CN1CCN(NC(=O)C2CC2)CC1`: 7.62%.
`Nc1c([N+](=O)[O-])cc(F)c(N2CCNCC2)c1Br`: the “hERG current change (%, negative = inhibition) at 1uM” value came out at 17.4%.
In the case of `COc1ccc(-n2c(NCCN(C)C)nc3sc4c(c3c2=O)CCCCC4)cc1` it was -69.4%; in that of `O=C(CSc1nnc(-c2cccnc2)n1-c1ccccc1)Nc1ccccn1`, -3.68%; in that of `COc1cccc(CN(C)C(=O)CN2C(=O)NC3(CCCc4ccccc43)C2=O)c1` (centres unmarked), 5.26%.
Next, `O=C(OCC(=O)N1CCOCC1)c1ccccc1OCc1ccccc1`: 5.7%.
Next, `COc1ccc(C(CNC(=O)c2oc3c(Cl)cccc3c2C)N2CCCC2)cc1` (centres unmarked): 1.09%; `O=[N+]([O-])c1ccccc1-c1cc(-c2cc(Cl)ccc2O)n[nH]1`: 3.78%; `Cc1ccc2c(c1)C1CN(C)CCC1N2C(=S)NC(=O)c1ccc(Br)cc1` (centres unmarked): -0.824%.
As for `CCN(c1ccccc1)S(=O)(=O)c1ccc(OC)c(NC(=O)CN(C)C)c1.O=C(O)C(=O)O`, the “hERG current change (%, negative = inhibition) at 1uM” value worked out at 11.4%.
Next, `Cc1cc(=O)oc2c(C)c(OC(C)C(=O)NC(Cc3c[nH]c4ccc(O)cc34)C(=O)O)ccc12` (centres unmarked): 5.15%.
Next, `COc1ccc(NC(=O)c2cc3c(s2)CCC3)cc1S(=O)(=O)N1CCOCC1`: 3.21%; `CCOC(=O)c1c(C)[nH]c(C)c1S(=O)(=O)N(C)CC(=O)NCc1ccc(F)cc1`: 8.15%.
Next, `CC(=O)Oc1cc2c(cc1Cl)C1(CC(c3ccccc3Cl)O2)CC(C)(C)NC(=S)N1` (centres unmarked): 4.5%; `COc1ccccc1N1CCN(C2CCN(C(=O)c3cc(OC)c(OC)c(OC)c3)CC2)CC1`: 4.53%; `O=C(Nc1nc(-c2ccc3c(c2)OCO3)cs1)C1CC1`: 7.49%.
In the case of `O=C(NCCC(=O)N1CCCCCCC1)c1ccc(Cl)cc1`, the “hERG current change (%, negative = inhibition) at 1uM” value turned out to be 6.22%.
Next, `Cc1cc(=O)[nH]c(SCC(=O)Nc2ccc(F)c([N+](=O)[O-])c2)n1`: 9.88%; `CN(C(=O)COc1ccccc1)C1CCS(=O)(=O)C1` (centres unmarked): 17.8%; `Cn1cc([N+](=O)[O-])c(C(=O)N2CCCCCC2)n1`: -5.03%.
As for `Cc1nonc1C(=O)N/N=C/c1ccc(O)cc1`, the “hERG current change (%, negative = inhibition) at 1uM” value was 16.3%.
In the case of `CCC1C(=O)NCCN1C(=O)c1ccccc1OC1CCN(S(C)(=O)=O)CC1` (centres unmarked) it was 17.4%.
On to `COc1ccccc1NS(=O)(=O)c1cccc(C(=O)NN=C2CCCCCC2)c1`, for which the “hERG current change (%, negative = inhibition) at 1uM” value is listed as 8.14%.
Regarding `Cc1cc(=O)[nH]c(N/N=C/CCc2ccccc2)n1`, the “hERG current change (%, negative = inhibition) at 1uM” value is given as 10.8%.
Next, `N/C(=N\OC(=O)C1CCCCC1)c1ccncc1`: 17.9%.
Next, `O=S(=O)(O)c1cccc2cccc(Nc3ccccc3)c12`: 6.12%; `O=[N+]([O-])c1nn(-c2ccc3c(c2)OCCO3)n(O)c1=NC1CCCCCC1`: 2.78%; `CN(C1CCCCC1)S(=O)(=O)c1ccc(-n2cnnn2)cc1`: -2.66%.
On to `COc1ccc(C2C(C#N)=C(N)Oc3cc(C)n(Cc4ccco4)c(=O)c32)cc1` (centres unmarked), for which the “hERG current change (%, negative = inhibition) at 1uM” value is 13.2%.
